From the supplement of paper PMC10126150
Sequences with one replicate were seen in a single cluster, so their values are uncertain.

The sequences below were run on ATP (assay: switch fluorescence ratio, 500 uM ATP over buffer (Cy3 cluster intensity, sum of 5 cycles each) (fold (ratio)); higher = stronger signal-on switching upon ATP binding; sequences stand for … in TCGTCGGCAGCGTCAGATGTGTATAAGAGACAGTTTTTTTTTTTTTTTTTTTTTTTTT…TC). Settings: aptamer strand: ATP DNA aptamer (quencher-CACCTGGGGGAGTATTGCGGAGGAAGG + anchor), 100 nM annealed; ATP concentration: 500 uM; one replicate.
Outline: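 Cy3-labelled switching-strand clusters on a modified Illumina MiSeq flow-cell were annealed to 100 nM quencher-labelled ATP aptamer and imaged first in selection buffer, then after 15 min with 500 uM ATP at 22 °C. NaOH stripping and re-annealing separated each of five buffer/ATP cycles, and clusters outside 100-1000 RFU were excluded. The fluorescence ratio sums target-cycle Cy3 intensity over buffer-cycle Cy3 intensity per cluster and averages it per switch-domain sequence.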
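Further: ATP exposure 15 min at 22 °C before imaging.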

| Sequence | switch fluorescence ratio |
| --- | --- |
| GACTGAAGGA | 0.96 |
| GACTGGCTCA | 0.991 |
| GACTGGTCGT | 1 |
| GACTGTACAT | 1.37 |
| GACTGTACGC | 1.6 |
| GACTGTCTCC | 1.05 |
| GACTGTGAAT | 1.01 |
| GACTGTTGGC | 1.01 |
| GACTTAGATG | 1.02 |
| GACTTATTAA | 1.03 |
| GACTTCGG | 1.01 |
| GACTTGTTTT | 1 |
| GACTTTCTGG | 0.981 |
| GACTTTGATG | 1.01 |
| GAGAAACACA | 1.02 |
| GAGAACATAG | 1 |
| GAGAACTGCG | 1.01 |
| GAGAATTTT | 0.938 |
| GAGACCTTT | 1.07 |
| GAGACGATGC | 1.15 |
| GAGACGGTTT | 0.998 |
| GAGAGCAATA | 6.08 |
| GAGAGCCTTG | 0.971 |
| GAGAGGACGC | 0.994 |
| GAGAGGATAC | 1.01 |

| Sequence | switch fluorescence ratio |
| --- | --- |
| GAGAGGTATG | 0.992 |
| GAGAGTATTA | 1.07 |
| GAGAGTGCAG | 1.05 |
| GAGATAGTCA | 1.05 |
| GAGATCAGCT | 1.03 |
| GAGATTGTCC | 1.05 |
| GAGCACACGT | 1.07 |
| GAGCACCTGT | 1.01 |
| GAGCACGGGG | 1.18 |
| GAGCAGAACA | 1.01 |
| GAGCAGCTTG | 1.01 |
| GAGCAGTCTC | 1.23 |
| GAGCATCAAC | 1.09 |
| GAGCCAGAAA | 0.962 |
| GAGCCAGCGT | 0.997 |
| GAGCCCATGA | 1.02 |
| GAGCCCGTGA | 1.06 |
| GAGCCTATAT | 1.03 |
| GAGCGACAAA | 0.982 |
| GAGCGAGGTT | 1 |
| GAGCGATTGT | 1 |
| GAGCGCATGA | 1.03 |
| GAGCGCCTAC | 1.51 |
| GAGCGCGCGT | 0.98 |
| GAGCGGGCAC | 1.01 |

| Sequence | switch fluorescence ratio |
| --- | --- |
| GAGCGGGGTT | 1.01 |
| GAGCGGTCTA | 0.956 |
| GAGCTGAACT | 1.06 |
| GAGCTGGGCA | 0.988 |
| GAGCTTGGCT | 0.939 |
| GAGCTTTGAA | 0.994 |
| GAGGAAATGC | 0.967 |
| GAGGACATT | 1.03 |
| GAGGACCCCT | 1.05 |
| GAGGACGAGT | 1 |
| GAGGAGACTA | 0.963 |
| GAGGAGTGAG | 0.938 |
| GAGGATAAGG | 1 |
| GAGGCCCTCG | 0.985 |
| GAGGCGGAA | 1.04 |
| GAGGCGTTCG | 0.929 |
| GAGGCTGAGG | 1.01 |
| GAGGCTGCCT | 1.03 |
| GAGGGAATAC | 1.72 |
| GAGGGAATGA | 1.08 |
| GAGGGAATTG | 1.03 |
| GAGGGACATC | 0.962 |
| GAGGGATTT | 0.957 |
| GAGGGCCCTG | 1.07 |
| GAGGGCTTCT | 1 |

| Sequence | switch fluorescence ratio |
| --- | --- |
| GAGGGGCCAT | 0.97 |
| GAGGGGCCGT | 0.994 |
| GAGGGTCGTT | 1.05 |
| GAGGTAAATG | 1.03 |
| GAGGTAATAA | 1.64 |
| GAGGTACCAT | 0.933 |
| GAGGTCCCGC | 1.04 |
| GAGGTCCGCT | 1.08 |
| GAGGTCCGTG | 1.08 |
| GAGGTCTATT | 1.02 |
| GAGGTGGCGA | 0.962 |
| GAGGTGGTTC | 1.05 |
| GAGGTTAGGG | 0.943 |
| GAGGTTATCG | 1.02 |
| GAGGTTGGTC | 1.02 |
| GAGGTTTATT | 1.02 |
| GAGTAAGAAA | 0.993 |
| GAGTAAGTAG | 0.977 |
| GAGTAATAAG | 0.99 |
| GAGTACGATA | 1.02 |
| GAGTACTGAT | 1.02 |
| GAGTACTTCA | 1.02 |
| GAGTAGCTTT | 0.984 |
| GAGTAGTG | 0.983 |
| GAGTATATAT | 0.996 |

| Sequence | switch fluorescence ratio |
| --- | --- |
| GAGTCATTCG | 0.962 |
| GAGTCCCGCG | 1.08 |
| GAGTCGCGGG | 0.946 |
| GAGTCTGCCT | 0.985 |
| GAGTGAGCG | 1.03 |
| GAGTGATGTG | 0.943 |
| GAGTGCGTTT | 0.977 |
| GAGTGGAATC | 1.04 |
| GAGTGTACAA | 1.01 |
| GAGTGTCCAG | 0.972 |
| GAGTGTCGG | 0.966 |
| GAGTTACTAG | 1.01 |
| GAGTTAGAGT | 0.992 |
| GAGTTATAA | 1.02 |
| GAGTTCGACC | 1.03 |
| GAGTTCTGGG | 0.987 |
| GAGTTTCGGT | 1.02 |
| GAGTTTTTCG | 1.01 |
| GATAAAGGCG | 1.03 |
| GATAACAAAC | 1.45 |
| GATAACCCAT | 0.949 |
| GATAAGAAAA | 1.06 |
| GATAATCCCG | 1.04 |
| GATAATGCCT | 1.09 |
| GATAATTCGG | 0.992 |

| Sequence | switch fluorescence ratio |
| --- | --- |
| GATACACGAA | 1.04 |
| GATACCTTAG | 1.04 |
| GATACCTTAT | 1.06 |
| GATACGCAGG | 1.04 |
| GATACGCGGC | 1.2 |
| GATACTCCGA | 1.09 |
| GATACTGAGC | 1.04 |
| GATAGAAGAT | 1.02 |
| GATAGACTC | 1.03 |
| GATAGAGCTA | 0.992 |
| GATAGATGAG | 1.02 |
| GATAGATTAA | 1.03 |
| GATAGTACAA | 1.02 |
| GATAGTCGAT | 0.983 |
| GATAGTTCTG | 0.963 |
| GATATAAAGG | 0.991 |
| GATATAAATG | 0.991 |
| GATATAGCCC | 1 |
| GATATAGCTT | 1.02 |
| GATATATTAA | 1.01 |
| GATATCCAGT | 0.962 |
| GATATCCGAT | 0.97 |
| GATATCCGGC | 0.948 |
| GATATCCGGT | 0.939 |
| GATATCTAGT | 1.01 |

| Sequence | switch fluorescence ratio |
| --- | --- |
| GATATGATGT | 1.02 |
| GATATGGACA | 1.03 |
| GATATGGTTG | 0.978 |
| GATATGTCAG | 0.949 |
| GATATGTGTC | 0.958 |
| GATATTGTTC | 0.942 |
| GATCACCCGG | 0.975 |
| GATCAGGCCC | 0.986 |
| GATCATAACT | 1.03 |
| GATCATATGG | 1.06 |
| GATCATGGGC | 1.02 |
| GATCATTGCA | 0.983 |
| GATCCCGAT | 1.01 |
| GATCCGAACG | 1.38 |
| GATCCTCAGC | 1.2 |
| GATCCTGCCC | 1.12 |
| GATCCTTCGC | 2.98 |
| GATCGACGAA | 0.984 |
| GATCGCAAGG | 1.08 |
| GATCGCCCCA | 0.982 |
| GATCGCTGAG | 1.03 |
| GATCGGGAGT | 0.994 |
| GATCGGTTAG | 1.18 |
| GATCGTCAGG | 0.985 |
| GATCGTTTG | 1.01 |

| Sequence | switch fluorescence ratio |
| --- | --- |
| GATCTAAAGT | 0.991 |
| GATCTAAGT | 0.972 |
| GATCTACCAT | 1.06 |
| GATCTAGGAC | 0.992 |
| GATCTATTCT | 0.968 |
| GATCTCAGCG | 0.968 |
| GATCTCTCAT | 0.997 |
| GATCTGACTG | 1 |
| GATCTTCGGG | 0.986 |
| GATCTTGCAG | 0.964 |
| GATGAAAATC | 0.98 |
| GATGAACTAT | 0.989 |
| GATGAAGCA | 1.01 |
| GATGACAATG | 1.01 |
| GATGACACGG | 0.998 |
| GATGAGCCTG | 0.959 |
| GATGAGGAGC | 1.02 |
| GATGAGGCAA | 1.02 |
| GATGAGGTCC | 0.984 |
| GATGAGTACT | 1.01 |
| GATGATCATC | 1.02 |
| GATGATTCGC | 1.01 |
| GATGCACGCG | 0.983 |
| GATGCACGTG | 0.985 |
| GATGCCCTTT | 1.03 |
